US20190309067A1 (BIONTECH, published 2019)
“And” between values parts separate entries of the source, which are not always exact repeats. Equal values may be shown once. Values belong to the binder of their own block, whether it stands above or below them.

Assays:
claudin 6 (CLDN6) [1] = target: T1, claudin 6 (CLDN6) (human, UniProt P56747 1-220); assay: cell-based or functional assay
T1 sequence (looked up): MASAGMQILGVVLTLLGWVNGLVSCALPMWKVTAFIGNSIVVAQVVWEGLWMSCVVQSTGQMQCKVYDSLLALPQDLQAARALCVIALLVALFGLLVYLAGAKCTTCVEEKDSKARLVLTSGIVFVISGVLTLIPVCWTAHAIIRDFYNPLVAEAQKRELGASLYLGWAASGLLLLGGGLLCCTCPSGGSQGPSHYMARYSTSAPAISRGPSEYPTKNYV

claudin 6 (CLDN6) [2] = target: T1, claudin 6 (CLDN6); assay: flow cytometry on PA-1 cells endogenously expressing CLDN6, detection with Protein L-FITC
Description: (§1) PA-1 cells endogenously expressing CLDN6 were harvested with 0.05% Trypsin/EDTA, washed with PBS and resuspended in FACS buffer (PBS containing 2% FCS and 0.1% sodium azide) at a concentration of 2×10⁶ cells/ml. 100 μl of the cell suspension was incubated with a concentration series of the different respective antibodies diluted in FACS buffer (11-point, 2-fold dilution series 9.77-10,000 ng/ml) and incubated for 45 min at 4° C. The cells were then washed three times with FACS buffer and incubated for 45 min at 4° C. with Protein L (Pierce/Thermo Scientific) conjugated with FITC by Squarix (Squarix Biotechnology, Marl, Germany) at a concentration of 4 μg/ml. Subsequently, the cells were washed twice and resuspended in 100 μl FACS buffer. Binding was analyzed by flow cytometry using a BD FACSArray (BD Biosciences). The EC50 of half maximal binding was determined using GraphPad Prism 6 One site—Specific binding.
(§2) Noteworthy, the binding curves of the tagged and tag-free bstbs are congruent.

claudin 6 (CLDN6) [3] = target: T1, claudin 6 (CLDN6); assay: flow cytometry on PA-1 cells endogenously expressing CLDN6, detection with Protein L-FITC, half maximal binding
Description: as §1, §2

claudin 18.2 (CLDN18.2) = claudin 18.2 (CLDN18.2) (human); assay: cell-based or functional assay

B1: Bstb_369/367 (bispecific antibody)
heavy: QVQLQQSGAELARPGASVKMS[letters of about 80 residues omitted]WGQGTTLTVSSASTKGPSVFPLAPSSKSTSGGTAALGCLVKDYFPEPVTVSWNSGALTSGVHTFPAVLQSSGLYSLSSVVTVPSSSLGTQTYICNVNHKPSNTKVDKRVEPKSCSGPGGGRSGGGGSGGGGSEVQLQQSGPELVKPGASMKISCKASGYSFTGYTMNWVKQSHGKCLEWIGLINPYNGGTIYNQKFKGKATLTVDKSSSTAYMELLSLTSEDSAVYYCARDYGFVLDYWGQGTTLTVSSGGGGSGGGGSGGGGSGGGGSQIVLTQSPSIMSVSPGEKVTITCSASSSVSYMHWFQQKPGTSPKLWIYSTSNLASGVPARFSGRGSGTSYSLTISRVAAEDAATYYCQQRSNYPPWTFGCGTKLEIKGGSHHHHHH
light: not shown
notes: Fab-(scFv)2 (bispecific TriMAB): anti-CD3 Fab with one anti-CLDN6 scFv (IMAB206-SUBW, disulfide-stabilised) at the C-terminus of each chain
EC50 of lysis of OV-90 (48 h), sample with 5% HMW species against monomer (claudin 6 (CLDN6) [1]): 2.3 fold
EC50 of lysis of PA-1 (16 h), sample with 5% HMW species against monomer (claudin 6 (CLDN6) [1]): 1.5 fold
EC50 of specific lysis, luciferase cytotoxicity assay, OV-90 target cells with human PBMC (E:T 5:1), 48 h (claudin 6 (CLDN6) [1]): 0.0397 nM
fold lower EC50 of lysis of OV-90 against the bi-(scFv)2 reference (claudin 6 (CLDN6) [1]): 55 fold
fold higher relative binding affinity compared to the bi-(scFv)2 reference protein (claudin 6 (CLDN6) [2]): ~8 fold
EC50 (claudin 6 (CLDN6) [3]): ~1.9 µg/mL and ~19 nM

B2: Bstb_371/367 (bispecific antibody)
heavy: QVQLQQSGAELARPGASVKMS[letters of about 80 residues omitted]WGQGTTLTVSSASTKGPSVFPLAPCSKSTSEGTAALGCLVKDYFPEPVTVSWNSGALTSGVHTFPAVLQSSGLYSLSSVVTVPSSNFGTQTYTCNVDHKPSNTKVDKTVEPKSASGPGGGRSGGGGSGGGGSEVQLQQSGPELVKPGASMKISCKASGYSFTGYTMNWVKQSHGKCLEWIGLINPYNGGTIYNQKFKGKATLTVDKSSSTAYMELLSLTSEDSAVYYCARDYGFVLDYWGQGTTLTVSSGGGGSGGGGSGGGGSGGGGSQIVLTQSPSIMSVSPGEKVTITCSASSSVSYMHWFQQKPGTSPKLWIYSTSNLASGVPARFSGRGSGTSYSLTISRVAAEDAATYYCQQRSNYPPWTFGCGTKLEIKGGSHHHHHH
light: not shown
EC50 of specific lysis, luciferase cytotoxicity assay, OV-90 target cells with human PBMC (E:T 5:1), 48 h (claudin 6 (CLDN6) [1]): 0.117 nM

B3: Bstb_5726/5725 (bispecific antibody)
heavy: QVQLQQSGAELARPGASVKMS[letters of about 80 residues omitted]WGQGTTLTVSSASTKGPSVFPLAPSSKSTSGGTAALGCLVKDYFPEPVTVSWNSGALTSGVHTFPAVLQSSGLYSLSSVVTVPSSSLGTQTYICNVNHKPSNTKVDKRVEPKSCSGPGGGRSGGGGSGGGGSEVQLQQSGPELVKPGASMKISCKASGYSFTGYTMNWVKQSHGKCLEWIGLINPYNGGTIYNQKFKGKATLTVDKSSSTAYMELLSLTSEDSAVYYCARDYGFVLDYWGQGTTLTVSSGGGGSGGGGSGGGGSGGGGSQIVLTQSPSIMSVSPGEKVTITCSASSSVSYMHWFQQKPGTSPKLWIYSTSNLASGVPARFSGRGSGTSYSLTISRVAAEDAATYYCQQRSNYPPWTFGCGTKLEIK
light: not shown
notes: Tag-free Fab-(scFv)2, CH1 of IgG1
fold higher relative binding affinity compared to the bi-(scFv)2 reference protein (claudin 6 (CLDN6) [2]): ~8 fold
EC50 (claudin 6 (CLDN6) [3]): ~1.9 µg/mL and ~19 nM

Results, then the binder that gave them:

EC50 of specific lysis of NUGC-4_hCLDN18.2 cells, 48 h (claudin 18.2 (CLDN18.2)): 0.0406 nM
fold EC50 against bi-scFv_5538 after normalisation to the plate reference (claudin 18.2 (CLDN18.2)): 23 fold
fold lower EC50 against bstb_5749/5751 (claudin 18.2 (CLDN18.2)): 1.8 fold
B4: Bstb_5750/5752 (bispecific antibody)
heavy: QVQLQQSGAELARPGASVKMS[letters of about 80 residues omitted]WGQGTTLTVSSASTKGPSVFPLAPSSKSTSGGTAALGCLVKDYFPEPVTVSWNSGALTSGVHTFPAVLQSSGLYSLSSVVTVPSSSLGTQTYICNVNHKPSNTKVDKRVEPKSCSGPGGGRSGGGGSGGGGSDIVMTQSPSSLTVTAGEKVTMSCKSSQSLLNSGNQKNYLTWYQQKPGQPPKLLIYWASTRESGVPDRFTGSGSGTDFTLTISSVQAEDLAVYYCQNDYSYPFTFGCGTKLEIKGGGGSGGGGSGGGGSGGGGSGGGGSQVQLQQPGAELVRPGASVKLSCKASGYTFTSYWINWVKQRPGQCLEWIGNIYPSDSYTNYNQKFKDKATLTVDKSSSTAYMQLSSPTSEDSAVYYCTRSWRGNSFDYWGQGTTLTVSS
light: not shown

EC50 of specific lysis of NUGC-4_hCLDN18.2 cells, 48 h (claudin 18.2 (CLDN18.2)): 0.0709 nM
fold EC50 against bi-scFv_5506 after normalisation to the plate reference (claudin 18.2 (CLDN18.2)): 6 fold
B5: Bstb_5749/5751 (bispecific antibody)
heavy: QVQLQQSGAELARPGASVKMS[letters of about 80 residues omitted]WGQGTTLTVSSASTKGPSVFPLAPSSKSTSGGTAALGCLVKDYFPEPVTVSWNSGALTSGVHTFPAVLQSSGLYSLSSVVTVPSSSLGTQTYICNVNHKPSNTKVDKRVEPKSCSGPGGGRSGGGGSGGGGSQVQLQQPGAELVRPGASVKLSCKASGYTFTSYWINWVKQRPGQCLEWIGNIYPSDSYTNYNQKFKDKATLTVDKSSSTAYMQLSSPTSEDSAVYYCTRSWRGNSFDYWGQGTTLTVSSGGGGSGGGGSGGGGSGGGGSDIVMTQSPSSLTVTAGEKVTMSCKSSQSLLNSGNQKNYLTWYQQKPGQPPKLLIYWASTRESGVPDRFTGSGSGTDFTLTISSVQAEDLAVYYCQNDYSYPFTFGCGTKLEIK
light: not shown
